Read counts are not given, so values of variants with three or more changes are uncertain.
B1: LINE1-full (parent)
chain: UACGUAGGUGGUUUUCCCCUGAUAGUGCUAAGGGGGCCUGGAAGUUUGGACUGGGCAGAGCUCAACACAGCGUGGCAAAGUGGCUGUGGCUAGACUGCCUCUCUGGAUUCCUCGUCACUCAGCAGGGCAUCUCUGAGAGAAAUGCC

Variants of: B1
Assay: self-cleavage, relative activity (ratio to wild type); higher = more cleavage; in vitro, sequencing; the parent is a self-cleaving ribozyme

Row | Variant | self-cleavage
1 | A22G A57U A67C U100C U109C | 0.27
2 | A43G A79G U85A | 0.04
3 | G21A A43G U45G | 1.38
4 | A43G G53A U115C A121G | 1.92
5 | U104A A107U A129U | 1.88
6 | U12G A124U U132C U143A | 1.44
7 | U1C U13C U52C | 0.97
8 | U23C U26A C38A A129G | 0.77
9 | G36C G126U A142G | 1.94
10 | C37G A77U U108A | 1.27
11 | A42G A50G A67U A140U | 0.21
12 | U12C U13C U47C U102C | 1.23
13 | G54U A65G U87C | 0.02
14 | C3U A77G U112C A140G | 0.89
15 | U39A U85C U104A U109A G114A C128U | 0.05
16 | A57G A79G G83A U85C A107G | 0
17 | A67U U115C A138G | 0.22
18 | U52C A59G G105A U143C | 0.07
19 | A50G A59U U96A U100A C111U | 0.03
20 | A31U U130A A141C | 1.26
21 | A124G A136G A140U | 1.03
22 | A6G A22G U45A U96C U119C G126U A141G | 0.26
23 | U15C G82A U119A | 1.93
24 | U20A U109C A129U A140G | 0.47

Row | Variant | self-cleavage
25 | U14C U73A U85A | 0.05
26 | U12C A78G U102C A129G | 0
27 | U62C A64G U87C | 0
28 | U20C G27U A78U | 1.59
29 | A69G A121U C145A | 0.94
30 | A24C C37G U104C A142G | 1.65
31 | U45C A67G U134C | 0.53
32 | U26C A77G U85A | 0.43
33 | U12C A24U G33U C56U U62C | 0.09
34 | U1C A42G U130C | 0.71
35 | U12G U81A U100A C113U | 1.58
36 | G21A U109A U115C A124U | 1.09
37 | A42G U87A U112C | 0
38 | U13C U39A A107G U108C A138U | 2.3
39 | G35A C56A A79G A94U U104C | 0
40 | U39C U96C U115A | 0.05
41 | U9C A78G U87A C95U | 0.08
42 | U62C A69G U134C | 0.17
43 | U13C C68U A94G | 0.11
44 | A77G A117G A140G U143A | 2.76
45 | U9A A57U A136G | 0.07
46 | G8A A43G A64G A65U A142G | 0
47 | U12C G36A U47G U81A A94G A107G | 0.8
48 | U26A A67G G72A C146U | 0.33

Row | Variant | self-cleavage
49 | A67G U100C C145G | 0.97
50 | A59G C113A A117U | 0.07
51 | U15A A30G U52G | 1.38
52 | A24U A59U A79G G89A U104C A136G A142G | 0.15
53 | U39G G48A U96C | 0.09
54 | A6U U12G U13C A67G U73A | 0
55 | A50G C66U G82A U119C | 0
56 | U14C A67G A69U A107G A136G A138G | 0
57 | A22U A50G A77G U85A | 0.04
58 | U20C A50G U52C A140U | 0.56
59 | C103A U104A A117C | 1.64
60 | U62A U102C U104A | 0
61 | U46C G88U U143C | 0.02
62 | A69G G74A U130C | 0.67
63 | U29C A69U U96A | 0.04
64 | U13C U108C U109C | 1.19
65 | A2G U62C A69U | 0
66 | U20C C90G U100C | 0.11
67 | U20A U112C U115A | 0.69
68 | U12C G32U U104C A124G | 0.92
69 | U12C U130C U143A | 1.62
70 | U5C U9C U14C U100C | 2.55
71 | A69U U96C U104A A121G | 0
72 | U20C A65G A142G | 0.08

Row | Variant | self-cleavage
73 | U52C A78G U108A | 0.77
74 | G10U G58U U73C U87C | 0.09
75 | G40A A43G A67G | 0.13
76 | A22G A43G U134A | 1.84
77 | U14G U85C U132A A142G | 0.18
78 | U1C A42G U52C A64G | 1.48
79 | A43G U96A A117G G122A | 0.1
80 | U26A U130C U143C | 0.76
81 | G34U G74A U115A | 1.09
82 | U20C G34U U130C | 1.43
83 | U13C C38G U62A A79G A94G | 0.17
84 | A30G A69G A78G U104C | 1.31
85 | U13C U91A U130C | 0.81
86 | U26A C56A A64C U112C C113U U130C | 0.02
87 | U39A A77U U102C G122U | 1.25
88 | G40C A50G U96C | 0
89 | A2G U9A A69U C111U | 0.01
90 | G8A U39G U45C U104G A117U A142G | 0
91 | G54A C103A A140G A142G | 0.23
92 | A2U U9A U26A A124G | 0.39
93 | U12G U52C U62C A65G G126U | 0
94 | A42G G54A A107G | 0.44
95 | U9G U13C A64U A124G U132A | 0.62
96 | U81C U108C G127A | 2.27

Row | Variant | self-cleavage
97 | A67U G82A G126U | 0.21
98 | U13C U14A A94G G114U A140G | 0.33
99 | A77G U85C U130C | 0
100 | A43G A129U A142G | 1.53
101 | U15C C18U C19U A22G A50U | 1.41
102 | G48A U108C C116U A140G | 1.84
103 | A2G U12G A50G C128U A141G U143C | 0.94
104 | U39C U52C U115C A138G | 0.8
105 | U9C U39C U52C A138G | 0.44
106 | A22G U39A U143C | 1.84
107 | U1C A42U A43G A77U G126A | 0.63
108 | C66U A69G U108C U132A U143A | 0.05
109 | U13C A59C U85A | 0.22
110 | G82A A94G G114A | 0.24
111 | C16U U45C A117U A141G | 0.54
112 | U96A G97A U108C | 0.07
113 | U26C U39A U47A U108C | 1.92
114 | U12G A59G A117G | 0.32
115 | A57U U73A A94G | 0
116 | U46C U62C U130C U132C | 0
117 | U12C A117G G126C | 0
118 | U39A U62G C63U A65C | 0.15
119 | G4A U20C U47C C71U | 0.67
120 | G36A U39C U119C A129G | 1.57

Row | Variant | self-cleavage
121 | U15C U81C G127A | 0.99
122 | A43G A57G A78G U96C | 1.02
123 | U20C A30G U73C | 1.84
124 | U15C U62C A107G A117G | 0
125 | U5C U96C U130A | 0.41
126 | U52A U73C A94G | 0.23
127 | A6G U73C U119C | 0
128 | G32U U45G U73A A78U U85C | 0.12
129 | A31G A94G U132A | 0.27
130 | U23A U91C C103U | 0.42
131 | G48U G60U U108C A141G | 0.04
132 | U109C A136U A140G | 1.84
133 | U15C G55A U62C U87C A136U | 0.06
134 | U26A U39A U108C U130C A141G | 0.84
135 | A50G G54A C84A | 0.02
136 | C3U A69G U108C | 0.51
137 | A2G A22G G25A | 0.48
138 | A2C U5C A64U U108A U115C | 0.87
139 | A69U U73A A94G U115C C120A U132C | 0
140 | U9C A136G A142G | 1.58
141 | A69G A94U A136G | 0.04
142 | U13C U85A G88U U100A A129G U134C A142G | 0.15
143 | U5C A30G G127C | 1.64
144 | U9C A31U G74A | 0.8

Row | Variant | self-cleavage
145 | A59U A79G U96A A124U | 0.08
146 | A67G A77G U91A | 0.46
147 | U14C A57U A142G | 0.18
148 | A22G U39C A69G U109C | 0
149 | G53U A107G A138G | 1.36
150 | U29C A64C A78G A141G | 0.33
151 | U9A G60A U73C U115G | 0.12
152 | A22C A64G U73C | 0
153 | U12C A69U A79U A129C U130C | 0.25
154 | A50U A59U G105U U112G U115C A129G | 1.23
155 | U14A U39A U81A U109C | 0.82
156 | U102C G122U A141G | 1.05
157 | A78G U132A U134A | 1.66
158 | C61A U100A U119C | 0.05
159 | A24G A57G G74A U132C | 1.08
160 | U20A A78U U85A | 0.13
161 | A57G U73C A117U U119C G122A | 1.74
162 | U13A U14A U29C A57U U96A U119A U134C | 1.06
163 | U96A A117G C145U | 0.09
164 | U81A U85C U112C | 0.31
165 | U15A A42G G125A U134C A142G | 1.31
166 | A6C A67G G72U U73C | 0.46
167 | U26A U47A C61A A65C A67U U102C | 0.02

From the RNAGym collection of RNA variant scans (doi:10.7554/elife.90254)
